The campaign covered roughly 44,000 compounds. About 340 (0.77%) were called active. About 5% were inconclusive and are not listed. Calls follow the shape of the dose curve; as a rule, active = well fitted inhibition curve with a large enough effect; inconclusive = small, poorly fitted or top-dose-only effect; inactive = flat fitted curve, though single readings scatter. This is one part of the list.
Assay: Acumen qHTS Assay for Inhibitors of the mTORC1 Signaling Pathway in MEF (Tsc2-/-, p53-/-) Cells: Sytravon;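 also: plate controls were DMSO for no effect and rapamycin for full effect; nearly all actives have a fitted effect of over 50% in size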
Settings: phospho-rpS6 immunofluorescence/PI, 24 h; series mostly up to 38.3 µM; activity change, negative = inhibition: at the top concentration
Procedure, shortened: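 Plate MEFs (Tsc2-/-, p53-/-, empty vector) in DMEM/10% FBS; after 24 h add compound, incubate 24 h at 37 degree Celsius; fix in PFA/TX-100, block, stain phospho-rpS6 and 10 uM PI; scan at 488 nm; report % positive cells.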

Activity change, negative = inhibition, inactive:
O=C(NCc1ccccc1Cl)C1CCCN(c2ncnc3onc(-c4ccc(F)cc4)c23)C1 (stereo unspecified) 3.91%
COc1cccc(-n2c(SCC(=O)c3ccc(Cl)cc3)nc3c([nH]c4ccccc43)c2=O)c1 -5.49%
CSc1ccc(CNC(=O)c2ccc(NC(=O)c3nsc4ccccc34)cc2)cc1 -10.2%
O=C(NCc1ccccc1Cl)NCc1noc2ccccc12 -6.02%
COC(=O)Cn1c(=O)c2c(nc3n2CCN3c2ccc(F)cc2)n(C)c1=O 6.59%
Cc1ccccc1NC(=O)Cn1c(=O)n(CC2CCC(C(=O)NCCc3ccccc3)CC2)c(=O)c2ccccc21 (stereo unspecified) 7.88%
Cc1ccc(N2C(=O)[C@@H]3CSC(c4ccc(F)cc4)N3C2=O)cc1 (stereo partly specified) -11.8%
CCOc1ccccc1C(=O)Nc1nc2c(s1)CC(C)CC2 (stereo unspecified) -12.2%
Cc1ccc(CNS(=O)(=O)c2ccc(-c3cc(C(F)(F)F)on3)s2)cc1 7.36%
Nc1c(C(=O)Nc2ccccc2)nnn1Cc1ccc(F)cc1Cl -0.386%
Cc1ccc(C(=O)Nc2cc3c(cc2N2CCCC2)n(C)c(=O)c(=O)n3C)cc1 -4.12%
COc1cc(NC(=O)COCc2cc(-c3ccc(F)cc3)on2)cc(OC)c1OC -5.81%
O=C(Nc1ccc(Cl)c(-c2nc3cc(Cl)ccc3o2)c1)c1cc([N+](=O)[O-])ccc1N1CCOCC1 1.18%
Cc1nn(C(C)(C)C)c(OC(=O)C(C)(C)C)c1Sc1ccccc1 -1.88%
O=C(O)CCn1cnc2onc(-c3cc(F)cc(F)c3)c2c1=O 1.95%
CCCOc1ccc(Oc2nc(NCC(C)C)nc(N3CCOCC3)n2)nn1 -4.96%
CC(=O)Nc1ccc(NC(=O)Cn2nc(C(=O)Nc3ccc(C)cc3)ccc2=O)cc1 -0.598%
CCOc1ccc(-c2cc3c(=O)n(CC(=O)NCc4ccc(Cl)cc4)ccn3n2)cc1 4.2%
COc1ccccc1N1CCN(c2nc(-c3ccc(C)cc3)nc3ccccc23)CC1 5.14%
COc1cccc(NC(=O)C2CCCN(S(=O)(=O)c3ccc4[nH]c(=O)ccc4c3)C2)c1 (stereo unspecified) -19%
O=C(Nc1ccc(OCc2cc(=O)n3c4c(sc3n2)CCCC4)cc1)c1ccccc1 -16.4%
CC1CCc2nc3ncn(Cc4ccccc4F)c(=O)c3cc2C1 (stereo unspecified) 1.98%
CCOc1ccc(NC(=O)CN(c2ccc(Cl)cc2C)S(=O)(=O)c2ccccc2)cc1 -2.17%
COc1ccc(N2CC(NC(=O)c3ccc4c(c3)OCO4)CC2=O)cc1 (stereo unspecified) -10.6%
COc1ccc(NC(=O)CN(c2ccc(C)cc2)S(=O)(=O)c2cccc3nonc23)cc1OC -0.403%
CCOc1ccc(OCC)c(NS(=O)(=O)c2c(C(=O)N3CCC(C)CC3)c(C)n(C)c2C)c1 0.605%
Cc1ccc(-n2c(SCC(=O)O)nc3sc4c(c3c2=O)CCCC4)cc1 -1.46%
CCCOc1c(Cl)cc(C(=O)N(Cc2cccc(OC)c2)C2CCS(=O)(=O)C2)cc1Cl (stereo unspecified) -1.55%
COc1ccc(NC(=O)Cn2cnc3c(oc4ccccc43)c2=O)cc1OC 8.04%
CC(C)NC(=O)C1CCC(Cn2c(=O)c3sccc3n(CC(=O)NCc3ccccc3)c2=O)CC1 (stereo unspecified) -9.75%
CCOc1ccc(NC(=O)c2cnc(N3CCCCC3)c3ccccc23)cc1 4.99%
CCOC(=O)c1c(-c2ccccc2)csc1NC(=O)c1cc(-c2ccc(F)cc2)on1 -16.3%
O=C(NCc1ccc2c(c1)OCO2)c1ccc2c(c1)N(Cc1ccccc1)C(=O)c1ccccc1S2=O (stereo unspecified) -14%
CN(c1ccccc1)S(=O)(=O)c1nnc(NC(=O)c2ccccc2)s1 3.64%
CC(C)n1cnc(S(=O)(=O)N2CCCC(C(=O)NCc3ccccc3Cl)C2)c1 (stereo unspecified) 0%
COC(=O)Cn1c(=O)c2cccn2c2cccnc21 -4.16%
CCOc1ccc(C(=O)c2c(N)c(-c3nc(-c4ccc5c(c4)OCO5)cs3)c3ccccn23)cc1 -3.26%
Cc1ccsc1CN(C(=O)c1oc2cc(Br)ccc2c1C)C1CCS(=O)(=O)C1 (stereo unspecified) -13.7%
Cc1cc(C(=O)Nc2ccc(C(C)C)cc2)c2c(C)nn(-c3ccccc3)c2n1 -0.355%
COc1cccc(CNC(=O)CSc2c3c(nc4cc(Cl)ccc24)CCCC3)c1 3.18%
CN(C)CCCN(C(=O)c1ccc2c(c1)OCCO2)c1nc2ccccc2s1 -21.5%
CCOc1ccccc1NC(=O)Cn1cc(C(=O)c2ccc(Cl)cc2)c(=O)c2ccc(C)nc21 2.62%
COc1ccc(Cn2c(=O)c3oc4ccccc4c3n(Cc3cccc(C)c3)c2=O)cc1 4.9%
COc1ccccc1CNc1ccc(-c2nc(-c3ccco3)no2)cc1[N+](=O)[O-] -3.6%
Cc1cccc2c(=O)cc(CSc3ccccc3NC(=O)c3cccc(F)c3)[nH]c12 -0.579%
CC(C)CCNC(=O)c1ccc2c(c1)N(Cc1cccc(Cl)c1)C(=O)c1ccccc1S2 5.16%
CCCC(=O)n1nc(-c2ccco2)nc1NCc1ccccc1Cl -6.24%
O=C(Nc1nnc(S(=O)(=O)N2CCOCC2)s1)c1ccccc1Cl -2.22%
Cc1cc2nn(-c3ccc(F)cc3)nc2cc1NC(=O)c1cccc2ccccc12 -1.07%
COc1ccc(OC)c(CCNC(=O)c2cc3c(=O)oc4ccc(C)cc4c3s2)c1 -14.7%
CC(=O)Nc1ccc(NC(=O)C2CCCN2S(=O)(=O)c2ccc3c(c2)CCCC(=O)N3)cc1 (stereo unspecified) -2.75%
O=C(Nc1ccc2nc(SCc3ccccc3)sc2c1)c1ccccc1F -22%
COc1ccc(N2CCN(C(=O)CN3C(=O)CSc4c3c(C)nn4-c3ccccc3)CC2)cc1 -3.25%
O=C(Nc1ccc2oc(-c3cccnc3)nc2c1)c1ccc(-c2ccc(OC(F)(F)F)cc2)o1 6.16%
Cc1ccc(OCC(=O)Nc2ccc3c(c2)nc(CCNC(=O)c2ccco2)n3C)cc1 -8.5%
COCCCNc1nc2cc(OC)c(OC)cc2c2nc(-c3ccccc3)nn12 -1.42%
Cc1ccccc1N1CC(C(=O)Nc2ccc(Br)cc2)CC1=O (stereo unspecified) -15.2%
COc1ccc(CNC(=O)CN2N=C(c3ccccc3)CCC2=O)c(OC)c1 4.24%
CCn1c(=O)c(=O)n(CC)c2cc(N3CCCCC3)c(NC(=O)c3ccc(Cl)cc3)cc21 4.36%
Cc1nnc(N2CCCC(C(=O)NCc3ccccc3F)C2)c2nn(-c3ccc(Cl)cc3)c(C)c12 (stereo unspecified) -5.68%
COc1ccc(C(=O)NCc2nnc(SCC(=O)Nc3ccccc3)n2-c2ccccc2)cc1 -16.2%
O=C(CSc1n[nH]c(-c2ccccc2)n1)NCCCc1ccccc1 0.72%
Cc1ccc(-n2nnc(-c3nsc(NC(=O)c4cccc(Cl)c4)n3)c2C)cc1C 5.15%
COc1cc(Cl)c(C)cc1NC(=O)c1ccc2c(SCC(=O)O)c3c(nc2c1)CCCC3 6.93%
COc1ccc(-c2nc3cc(C(C)C)ccc3o2)cc1NC(=O)COc1ccc(C)cc1C -15.3%
O=C(Cn1c(=O)c2ccccc2n(CC(=O)Nc2ccc(F)cc2F)c1=O)NCCc1ccccc1 0.703%
Cc1ccc(C)c(Nc2ncnc3onc(C)c23)c1 5.63%
COc1ccc(NC(=O)CCSc2nc(-c3ccco3)cc(C(F)(F)F)n2)cc1 -3.71%
COc1ccc(NC(=O)CSc2ncccc2C(=O)O)cc1OC 12.7%
CCN(C(=O)c1cc2c(=O)oc3ccc(C)cc3c2s1)c1cc(OC)ccc1OC -3.51%
CCC1CCCCN1CCCNC(=O)c1ccc2c(c1)N(Cc1ccccc1)C(=O)c1ccccc1S2(=O)=O (stereo unspecified) -12.6%
CCn1nc(C)c2c(-c3ccccc3)cc(=O)n(C(C)C(=O)NCc3cccc(OC)c3)c21 (stereo unspecified) -2.89%
CCOc1cccc(CC(=O)N2CCc3c([nH]c4ccccc34)C2c2ccccc2)c1OCC (stereo unspecified) 4.39%
CCN(CC)c1ccc(CN(C(=O)Cc2coc3ccc(C)cc23)C2CCS(=O)(=O)C2)cc1 (stereo unspecified) -14.4%
CCc1ccc(OCCCn2c(-c3ccc(Cl)cc3)nc3ccccc3c2=O)cc1 6.25%
Cc1ccc(-c2nc3scc(CCNS(=O)(=O)c4ccc(F)c(C)c4)n3n2)cc1 0.465%
Cc1ccc(Cl)cc1NC(=O)CSc1ccc(C(=O)O)cn1 2.06%
CCN(CC)c1ccc(NC(=O)c2cc(C)nc3c2c(C)nn3-c2cccc(F)c2)c(C)c1 3.33%
c1ccc(-c2nnc(CN3CCN(c4ccccn4)CC3)o2)cc1 5.69%
O=C(NCCSCc1cccc(Cl)c1)C1CCN(S(=O)(=O)Cc2ccccc2)CC1 -1.14%
CCC1CN(C(=O)N2CCC(C(=O)NCCc3ccccc3C)CC2)c2ccccc2O1 (stereo unspecified) 0%
Cc1ccc(OCC(=O)OCc2cc(=O)n3nc(C4CCCCC4)sc3n2)cc1C -6.7%
O=C1CC(c2ccccc2)Sc2nc(-c3ccc(F)cc3)nn21 (stereo unspecified) -14%
O=C(c1[nH]c2ccccc2c1Sc1ccc(Cl)cc1)N1CCCCC1 9.02%
COc1ccc(C(=O)Nc2cc(C(C)C)c(O)c(S(=O)(=O)c3ccc(Cl)cc3)c2C)cc1 -1.46%
CCN(Cc1ccccc1)Cc1c(O)ccc2c(=O)c(-c3ccccc3)c(C(F)(F)F)oc12 -19.1%
CCOc1ccccc1CNCc1c(C(=O)O)c(C)n(Cc2ccc(Cl)cc2)c1C -1.62%
CCc1ccccc1NC(=O)Cn1c(=O)oc2ccccc21 -9.63%
CCCN(C(=O)Cn1nc(Cc2cccnc2)c2ccccc2c1=O)c1ccc(C(C)C)cc1 -10.1%
CCOc1ccc(CCNC(c2nnc(-c3ccccc3)o2)c2ccccc2Cl)cc1OCC (stereo unspecified) 1.1%
COc1ccc(CCNC(=O)c2cc(-c3ccc(C)c(C)c3)nc3ccccc23)cc1OC -12.2%
CCCn1c2ccc(C)cc2c2nnc(SCCN3CCCCC3)nc21 -26.2%
Cc1ccc(S(=O)(=O)Nc2nc3n(n2)C(c2ccc(Cl)cc2)C=C(c2ccccc2)N3)cc1 (stereo unspecified) 1.86%
O=C(CN1C(=O)CC(c2ccco2)Sc2ccccc21)Nc1ccc(OC(F)(F)F)cc1 (stereo unspecified) 3.21%
COc1ccc(C(=O)NCC(c2cccs2)S(=O)(=O)c2cccs2)cc1 (stereo unspecified) -7.88%
Cc1ccc(NC(=O)[C@H](Cc2ccccc2)N2Cc3ccccc3C2=O)cc1F -0.0506%
